Results as given in US20160287540A1, “Increasing Cancer Patient Survival Time by Administration of Dithio-Containing Compounds” (BioNumerik Pharmaceuticals, Inc., priority 2015, published 2016).

Test system: thioredoxin/thioredoxin reductase

O=S(=O)([O-])CCSSCCS(=O)(=O)[O-].[Na+].[Na+] [BNP7787, disodium 2,2′-dithio-bis-ethane sulfonate]
effect on TX/TXR catalyzed reduction of the insulin A-B chain disulfide bond (in words): inhibits
